# From PMC10039029
# The chains behind the UniProt entries cited, without tags or fusion partners.
# UniProt Q7TSC1: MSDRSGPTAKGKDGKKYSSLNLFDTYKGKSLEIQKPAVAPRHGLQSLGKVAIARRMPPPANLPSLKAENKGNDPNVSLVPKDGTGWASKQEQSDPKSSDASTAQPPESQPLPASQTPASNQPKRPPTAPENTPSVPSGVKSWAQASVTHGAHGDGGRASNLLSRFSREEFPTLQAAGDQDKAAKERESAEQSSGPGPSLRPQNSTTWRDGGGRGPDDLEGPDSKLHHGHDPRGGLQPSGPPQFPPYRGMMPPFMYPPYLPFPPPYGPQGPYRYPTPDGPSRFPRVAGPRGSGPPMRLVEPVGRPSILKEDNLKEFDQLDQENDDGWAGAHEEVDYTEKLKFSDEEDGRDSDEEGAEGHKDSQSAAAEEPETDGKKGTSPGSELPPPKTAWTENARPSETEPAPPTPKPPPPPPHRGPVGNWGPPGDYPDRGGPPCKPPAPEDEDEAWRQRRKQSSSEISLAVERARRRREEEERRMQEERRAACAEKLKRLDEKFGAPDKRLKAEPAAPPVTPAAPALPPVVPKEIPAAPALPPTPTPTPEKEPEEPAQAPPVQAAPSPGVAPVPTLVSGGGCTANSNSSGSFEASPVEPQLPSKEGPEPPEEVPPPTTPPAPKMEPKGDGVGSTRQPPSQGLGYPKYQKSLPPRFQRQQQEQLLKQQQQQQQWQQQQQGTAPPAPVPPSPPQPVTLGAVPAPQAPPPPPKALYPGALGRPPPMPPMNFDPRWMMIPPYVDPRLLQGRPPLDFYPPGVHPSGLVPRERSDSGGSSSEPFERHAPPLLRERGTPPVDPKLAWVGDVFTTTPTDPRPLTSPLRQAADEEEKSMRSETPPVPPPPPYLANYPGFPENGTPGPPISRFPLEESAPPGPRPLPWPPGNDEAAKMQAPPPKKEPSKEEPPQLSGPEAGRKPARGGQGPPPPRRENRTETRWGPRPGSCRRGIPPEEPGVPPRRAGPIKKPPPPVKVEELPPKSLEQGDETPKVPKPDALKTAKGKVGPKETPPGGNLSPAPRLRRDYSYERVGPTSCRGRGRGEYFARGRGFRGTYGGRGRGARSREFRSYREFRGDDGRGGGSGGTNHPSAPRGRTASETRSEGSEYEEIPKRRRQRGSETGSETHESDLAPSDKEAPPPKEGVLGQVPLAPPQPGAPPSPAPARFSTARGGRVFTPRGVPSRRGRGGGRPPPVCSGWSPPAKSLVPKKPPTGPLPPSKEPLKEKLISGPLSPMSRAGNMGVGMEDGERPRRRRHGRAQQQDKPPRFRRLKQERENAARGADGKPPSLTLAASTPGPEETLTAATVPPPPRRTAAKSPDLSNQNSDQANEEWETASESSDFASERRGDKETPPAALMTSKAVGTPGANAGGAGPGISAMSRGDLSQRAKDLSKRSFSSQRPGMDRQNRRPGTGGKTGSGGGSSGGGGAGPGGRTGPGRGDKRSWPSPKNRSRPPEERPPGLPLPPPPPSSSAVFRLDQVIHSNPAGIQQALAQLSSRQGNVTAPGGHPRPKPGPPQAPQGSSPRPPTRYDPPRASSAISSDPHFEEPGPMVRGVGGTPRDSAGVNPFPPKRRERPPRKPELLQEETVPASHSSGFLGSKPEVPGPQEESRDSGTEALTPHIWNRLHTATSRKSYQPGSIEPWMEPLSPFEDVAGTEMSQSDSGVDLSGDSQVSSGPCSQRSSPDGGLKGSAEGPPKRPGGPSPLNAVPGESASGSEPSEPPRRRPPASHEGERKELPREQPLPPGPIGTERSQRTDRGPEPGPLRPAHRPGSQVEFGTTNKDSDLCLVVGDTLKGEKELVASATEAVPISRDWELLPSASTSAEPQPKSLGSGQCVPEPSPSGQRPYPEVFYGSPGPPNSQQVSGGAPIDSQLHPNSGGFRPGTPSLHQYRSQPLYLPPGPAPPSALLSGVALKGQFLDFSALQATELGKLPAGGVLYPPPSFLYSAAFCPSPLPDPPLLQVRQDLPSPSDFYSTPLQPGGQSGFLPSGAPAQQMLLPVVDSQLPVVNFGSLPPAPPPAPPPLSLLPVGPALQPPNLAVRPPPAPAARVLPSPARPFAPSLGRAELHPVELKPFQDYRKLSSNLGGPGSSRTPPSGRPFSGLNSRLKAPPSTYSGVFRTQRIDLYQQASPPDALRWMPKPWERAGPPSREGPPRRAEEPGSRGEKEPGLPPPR
# UniProt Q9JMB7: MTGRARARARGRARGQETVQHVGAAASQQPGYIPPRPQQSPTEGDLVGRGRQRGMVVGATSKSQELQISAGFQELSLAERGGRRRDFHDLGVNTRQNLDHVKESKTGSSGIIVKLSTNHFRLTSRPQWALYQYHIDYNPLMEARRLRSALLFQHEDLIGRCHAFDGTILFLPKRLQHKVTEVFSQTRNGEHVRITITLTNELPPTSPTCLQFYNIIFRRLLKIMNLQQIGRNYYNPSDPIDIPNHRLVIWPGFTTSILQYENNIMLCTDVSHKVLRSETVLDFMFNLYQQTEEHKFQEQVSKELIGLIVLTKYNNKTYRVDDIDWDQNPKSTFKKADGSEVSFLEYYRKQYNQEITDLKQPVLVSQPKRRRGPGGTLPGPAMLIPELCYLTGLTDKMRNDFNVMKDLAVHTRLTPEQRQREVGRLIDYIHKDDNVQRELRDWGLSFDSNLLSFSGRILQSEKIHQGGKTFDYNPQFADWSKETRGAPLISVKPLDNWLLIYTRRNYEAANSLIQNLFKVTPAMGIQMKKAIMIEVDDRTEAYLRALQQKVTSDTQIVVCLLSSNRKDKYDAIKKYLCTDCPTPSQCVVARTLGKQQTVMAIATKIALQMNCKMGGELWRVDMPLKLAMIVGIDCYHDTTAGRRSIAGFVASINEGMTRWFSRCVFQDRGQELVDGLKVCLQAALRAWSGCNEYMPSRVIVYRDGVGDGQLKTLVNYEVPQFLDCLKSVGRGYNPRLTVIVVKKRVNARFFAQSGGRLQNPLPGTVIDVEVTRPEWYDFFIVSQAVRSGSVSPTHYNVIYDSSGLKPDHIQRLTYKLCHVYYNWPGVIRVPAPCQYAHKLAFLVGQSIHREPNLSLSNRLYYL
# UniProt Q80XI3: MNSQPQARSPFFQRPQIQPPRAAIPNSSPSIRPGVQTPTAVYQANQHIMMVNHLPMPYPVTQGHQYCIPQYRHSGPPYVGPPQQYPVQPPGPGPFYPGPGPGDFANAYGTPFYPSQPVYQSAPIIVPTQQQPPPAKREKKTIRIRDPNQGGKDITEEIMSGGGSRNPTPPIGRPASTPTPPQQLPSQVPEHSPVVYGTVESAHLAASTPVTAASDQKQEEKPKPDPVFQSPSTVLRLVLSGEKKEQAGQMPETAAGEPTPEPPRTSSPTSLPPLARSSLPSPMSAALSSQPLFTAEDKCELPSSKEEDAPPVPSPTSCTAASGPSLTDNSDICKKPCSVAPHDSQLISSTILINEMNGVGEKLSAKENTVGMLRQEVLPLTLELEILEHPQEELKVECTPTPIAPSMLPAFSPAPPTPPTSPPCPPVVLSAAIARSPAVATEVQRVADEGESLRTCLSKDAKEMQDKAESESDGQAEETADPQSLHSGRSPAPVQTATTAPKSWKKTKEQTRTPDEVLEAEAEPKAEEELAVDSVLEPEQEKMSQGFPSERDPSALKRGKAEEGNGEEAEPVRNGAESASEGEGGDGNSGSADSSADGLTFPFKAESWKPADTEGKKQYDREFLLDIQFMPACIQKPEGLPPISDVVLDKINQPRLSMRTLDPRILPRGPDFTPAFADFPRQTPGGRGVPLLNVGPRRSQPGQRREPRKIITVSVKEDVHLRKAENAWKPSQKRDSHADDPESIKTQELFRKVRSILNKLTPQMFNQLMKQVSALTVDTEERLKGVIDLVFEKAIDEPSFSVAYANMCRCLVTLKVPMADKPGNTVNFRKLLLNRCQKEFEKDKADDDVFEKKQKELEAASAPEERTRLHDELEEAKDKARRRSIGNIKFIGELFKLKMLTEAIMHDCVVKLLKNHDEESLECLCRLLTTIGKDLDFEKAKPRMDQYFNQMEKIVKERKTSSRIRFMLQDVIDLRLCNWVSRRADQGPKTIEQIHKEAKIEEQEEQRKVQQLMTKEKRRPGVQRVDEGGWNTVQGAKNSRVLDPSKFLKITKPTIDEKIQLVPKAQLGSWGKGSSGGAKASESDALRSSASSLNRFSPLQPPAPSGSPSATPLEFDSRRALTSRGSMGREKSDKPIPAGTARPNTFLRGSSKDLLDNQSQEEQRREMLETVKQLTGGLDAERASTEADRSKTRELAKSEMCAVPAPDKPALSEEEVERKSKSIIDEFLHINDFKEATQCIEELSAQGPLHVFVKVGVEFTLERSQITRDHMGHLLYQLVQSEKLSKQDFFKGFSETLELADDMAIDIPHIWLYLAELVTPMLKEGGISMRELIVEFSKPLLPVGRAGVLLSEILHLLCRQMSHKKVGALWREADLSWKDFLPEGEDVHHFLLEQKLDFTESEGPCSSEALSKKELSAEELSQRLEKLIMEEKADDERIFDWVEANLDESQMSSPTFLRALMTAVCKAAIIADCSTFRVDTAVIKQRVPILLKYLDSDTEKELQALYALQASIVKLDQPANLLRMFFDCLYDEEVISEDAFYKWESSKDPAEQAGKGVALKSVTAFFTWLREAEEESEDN
# UniProt Q61584: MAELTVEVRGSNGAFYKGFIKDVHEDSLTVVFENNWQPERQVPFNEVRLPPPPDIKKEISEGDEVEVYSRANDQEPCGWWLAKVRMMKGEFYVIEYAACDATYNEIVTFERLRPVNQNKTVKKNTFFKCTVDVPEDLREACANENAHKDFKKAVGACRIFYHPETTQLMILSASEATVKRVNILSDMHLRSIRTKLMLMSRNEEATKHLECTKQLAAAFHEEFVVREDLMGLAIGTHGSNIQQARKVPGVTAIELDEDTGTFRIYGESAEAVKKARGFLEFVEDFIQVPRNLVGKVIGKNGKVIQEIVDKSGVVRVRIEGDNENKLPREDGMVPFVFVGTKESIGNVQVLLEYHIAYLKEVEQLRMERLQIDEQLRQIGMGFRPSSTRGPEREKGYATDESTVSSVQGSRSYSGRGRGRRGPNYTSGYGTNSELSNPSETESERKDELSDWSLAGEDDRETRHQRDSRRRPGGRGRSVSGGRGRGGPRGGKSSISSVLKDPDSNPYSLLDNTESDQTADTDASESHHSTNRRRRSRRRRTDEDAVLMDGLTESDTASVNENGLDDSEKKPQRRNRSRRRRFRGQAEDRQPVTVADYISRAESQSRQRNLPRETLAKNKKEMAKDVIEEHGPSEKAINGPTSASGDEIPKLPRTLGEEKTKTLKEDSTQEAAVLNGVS
# UniProt P29341: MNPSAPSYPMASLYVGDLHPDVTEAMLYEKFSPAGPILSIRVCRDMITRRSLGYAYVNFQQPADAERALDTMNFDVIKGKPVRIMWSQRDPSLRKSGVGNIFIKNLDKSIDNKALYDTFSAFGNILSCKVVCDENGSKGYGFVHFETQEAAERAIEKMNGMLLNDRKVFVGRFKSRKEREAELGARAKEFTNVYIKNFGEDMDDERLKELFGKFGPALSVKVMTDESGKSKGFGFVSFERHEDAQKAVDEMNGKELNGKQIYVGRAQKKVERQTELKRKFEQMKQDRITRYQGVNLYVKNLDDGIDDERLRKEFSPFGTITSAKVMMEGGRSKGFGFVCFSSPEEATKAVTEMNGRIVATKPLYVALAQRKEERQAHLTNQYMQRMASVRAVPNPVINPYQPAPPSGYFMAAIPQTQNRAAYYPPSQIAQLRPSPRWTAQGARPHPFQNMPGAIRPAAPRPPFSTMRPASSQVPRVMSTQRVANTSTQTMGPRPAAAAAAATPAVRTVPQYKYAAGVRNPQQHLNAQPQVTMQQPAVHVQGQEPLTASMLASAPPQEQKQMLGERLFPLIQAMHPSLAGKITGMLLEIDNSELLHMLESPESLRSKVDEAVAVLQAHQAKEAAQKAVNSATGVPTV
# Results are given in words; binding and its absence hold for the method and conditions named. In cells and extracts the contact can be indirect. Some binding calls cover weakened binding; strength is not graded here.
# Tests used:
# [1] = target: Proline rich coiled-coil 2A (PRRC2A) with a 3×flag tag, from Prrc2a-flag knock-in mice (mouse) (UniProt Q7TSC1); assay: co-IP; P20 Prrc2a-flag testis lysate (150 mM NaCl, 10 mM HEPES pH 7.6, 2 mM EDTA, 0.5% NP-40, 0.5 mM DTT, RNasin); anti-Flag or IgG control on Protein G magnetic beads, overnight 4 °C; 8 washes in NT2 buffer (200 mM NaCl) with RNase inhibitor; Western blot
# [2] = target: Proline rich coiled-coil 2A (PRRC2A) with a 3×flag tag, from Prrc2a-flag knock-in mice (mouse) (UniProt Q7TSC1); assay: co-IP; as a1 but with RNase A: RNasin and DTT replaced by 10 mg/mL RNase A in the lysis buffer; beads treated with 10 mg/mL RNase A in NT2 buffer for 20 min at room temperature; Western blot
# [3] = target: Proline rich coiled-coil 2A (PRRC2A) with a 3×flag tag, from Prrc2a-flag knock-in mice (mouse) (UniProt Q7TSC1); assay: co-IP; P20 Prrc2a-flag testis lysate (150 mM NaCl, 10 mM HEPES pH 7.6, 2 mM EDTA, 0.5% NP-40, 0.5 mM DTT, RNasin); anti-Flag or IgG control on Protein G magnetic beads, overnight 4 °C; 8 washes in NT2 buffer (200 mM NaCl) with RNase inhibitor; Western blot; remark: listed apart in the source
Molecule,binding [1],binding [2],binding [3]
MIWI (from UniProt Q9JMB7 1-862),binds,,
eukaryotic translation initiation factor 4 gamma 3 (EIF4G3) (from UniProt Q80XI3 1-1579),binds,binds,
fragile-X mental retardation autosomal 1 (FXR1) (from UniProt Q61584 1-677),binds,binds,
poly(A) tail binding protein C1 (PABPC1) (from UniProt P29341 1-636),binds,binds,
"DDX4 (protein, UniProt Q61496 1-702) MGDEDWEAEILKPHVSSYVPVFEKDKYSSGANGDTFNRTSASSDIGESSKKENTSTTGGFGRGKGFGNRGFLNNKFEEGDSSGFWKESNNDCEDNQTRSRGFSKRGGCQDGNDSEASGPFRRGGRGSFRGCRGGFGLGRPNSESDQDQGTQRGGGLFGSRKPAASDSGNGDTYQSRSGSGRGGYKGLNEEVVTGSGKNSWKSETEGGESSDSQGPKVTYIPPPPPEDEDSIFAHYQTGINFDKYDTILVEVSGHDAPPAILTFEEANLCQTLNNNIAKAGYTKLTPVQKYSIPIVLAGRDLMACAQTGSGKTAAFLLPILAHMMRDGITASRFKELQEPECIIVAPTRELINQIYLEARKFSFGTCVRAVVIYGGTQFGHSVRQIVQGCNILCATPGRLMDIIGKEKIGLKQVKYLVLDEADRMLDMGFGPEMKKLISCPGMPSKEQRQTLLFSATFPEEIQRLAGDFLKSSYLFVAVGQVGGACRDVQQTILQVGQYSKREKLVEILRNIGDERTMVFVETKKKADFIATFLCQEKISTTSIHGDREQREREQALGDFRCGKCPVLVATSVAARGLDIENVQHVINFDLPSTIDEYVHRIGRTGRCGNTGRAISFFDTDSDNHLAQPLVKVLSDAQQDVPAWLEEIAFSTYVPPSFSSSTRGGAVFASVDTRKNYQGKHTLNTAGISSSQAPNPVDDESWD",,,binds
"PATL1 (protein, UniProt Q3TC46 1-770) MFRYESLEDCPLDEDEDAFQGLGEEDEEIDQFNDDTFGSGAVDDDWQEAHERLAELEEKLPVAADEQTGNGERDEMDLLGDHEENLAERLSKMVIENELEDPAIMRAVQTRPVLQPQPGSLNSSIWDGSEVLRRIRGPLLAQEMPTVSVLEYALPQRPLQGPEDDRDLSERALPRRSTSPIIGSPPVRAVPIGTPPKQMAVPSFNQQILCPKPVHVRPPMPPRYPAPYGERISPNQLCSVPNSSLLGHPFPPNVPPVLSPLQRAQLLGGAQLQPGRMSPSQFARVPGFVGSPLAAMNPKLLQGRVGQMLPPAPSFRAFFSAPPPATPPPQQHPPGPGPHLQNLRPQAPMFRADTTHLHPQHRRLLHQRQLQSRNQHRNLNGTGDRGGHQSSHQDHLRKDPYANLMLQREKDWVSKIQMMQLQSTDPYLDDFYYQNYFEKLEKLSAAEEIQGDGPKKERTKLITPQVAKLEHAYQPVQFEGSLGKLTVSSVNNPRKMIDAVVTSRSEDDETKEKQVRDKRRKTLVIIEKTYSLLLDVEDYERRYLLSLEEERPALMDERKHKICSMYDNLRGKLPGQERPSDDHFVQIMCIRKGKRMVARILPFLSTEQAADILMATARNLPFLIKKDAQDEVLPCLLSPFSLLLYHLPSVTVTSLLQQLMNLPQSASAPAPSNSHLTAVLQNKFGLSLLLILLSRGEDLQSSDPAIESTQNNQWTEVMFMATRELLRIPQAALAKPISIPTNLVSLFSRYVDRQKLNLLETKLQLVQGIR",,,no binding
"DCP1A (protein, UniProt Q91YD3 1-602) MALSCSTVRPRRRGSALRSKMELLSRAEQEMSLAALKQHDPYITSIADLTGQVALYTFCPKANQWEKTDIEGTLFVYRRSASPYHGFTIVNRLNMHNLVEPVNKDLEFQLHEPFLLYRNASLSIYSIWFYDKNDCHRIAKLMADVVEEETRRSQQAARDKQSPSQANGCSDQRPIDILEMLSRAKDEYERNQMGGSNISSPGLQPSTQLSNLGSTETLEETPSGSQDKSAPSGHKHLTVEELFGTSLPKEQPTAMGLESEDTDKLLGDASQKEPSSFLPFPFEQSGGAPQSENLGIHSAAHHTVQPEVSTPVLITPASIAQSGDKHPPSYTLPLSPVLSPTLPAEAPTTQVPHLPRNSTMIQAVKTTPRQKSPLLNQPVPELSHSSLVASQSPFRAPVSLANPAGTALPSVDLLQKLRLTPQHDQIQAQPLGKGTMAPSFSSAAGQLATPESFIEPSSKTAAARAAVSASLSNMVLAPTLQSMQQNQDPEVFSQPKVLPSAIPIAGSPLVPATTTAVSSVLLSPSVFQQTVPRAADLERKASSPSPLTVGTAESQRKPSIILSKSQLQDTLIHLIKNDSSFLSTLHAVYLQVLTKNKDNHNL",,,no binding
